# Data taken from PubChem BioAssay (Tox21).
# The shares of active, inactive and inconclusive entries below differ from those in the screen. For some assays here: A potency beside an inconclusive call is a rough fit, not a confirmed value. Active and inactive are the calls of the source. Unless noted, calls follow the shape of the dose curve; as a rule, active = well fitted curve in the direction sought with a large enough effect in the repeat runs; inconclusive = weak or mixed curves; inactive = no such curve, though single readings can be large; an effect the other way counts as inactive or inconclusive.
# Assays:
# [1] = qHTS assay to identify small molecule antagonists of the estrogen related receptor (ERR) signaling pathway from Tox21 library - cell viability counter screen (AID 1224834); also: potency is read from the fitted curve at half-maximal effect; nearly all actives have a fitted effect of over 30% in size
# Method in brief: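 Compounds in DMSO were pinned onto ERR cells that had been incubated for 6 h, and the plates were held at 37 C for 17.5 h. CellTiter-Fluor reagent was then added and fluorescence was measured after 30 min.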
# [2] = biological target: Nuclear receptor subfamily 1 group I member 3 (Homo sapiens) (UniProt Q14994); assay: qHTS assay to identify small molecule antagonists of the constitutive androstane receptor (CAR) signaling pathway (AID 1224838);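 also: HepG2 cells stably expressing hCAR with CYP2B6 luciferase reporter stimulated by CITCO; potency is read from the fitted curve at half-maximal effect; nearly all actives have a fitted effect of over 40% in size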
# Method in brief: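 Luminescence from a CYP2B6-2.2kb promoter reporter in hCAR-expressing HepG2 cells reflects CAR signaling. Cells received compounds at 15 concentrations and 50 nM CITCO (final), then incubated 24 h at 37 C/5% CO2.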
# [3] = qHTS assay to identify small molecule antagonists of the estrogen related receptor signaling pathway with the pleiotropic PPARgamma coactivator (PGC) from Tox21 10K library (AID 1224841; call rule not given here; also: potency is read from the fitted curve at half-maximal effect; actives are mostly falling curves and most rising ones were filed inactive; nearly all actives have a fitted effect of over 50% in size)
# Method in brief: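 Cells stably carrying the PGC/ERR reporter, seeded at 2,000 per well, received pin-transferred compounds 6 h post-plating. Exposure lasted 18 h at 37 C. Signal: One-Glo luminescence.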
# [4] = qHTS assay to identify small molecule antagonists of the estrogen related receptor (ERR) signaling pathway from Tox21 library (AID 1224848); also: potency is read from the fitted curve at half-maximal effect; nearly all actives have a fitted effect of over 50% in size
# Method in brief: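 Luciferase luminescence (ONE-Glo, 30 min room temperature) was the read-out. Cells of the NTP-supplied ERR line, 2,000 per well, were given 6 h at 37 C before compound addition in DMSO and 18 h exposure at 37 C.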
# [5] = qHTS RealTime-Glo MT Cell Viability Assay in HEK293 cells - 32 hour (AID 1224868); also: potency is read from the fitted curve at half-maximal effect; nearly all actives have a fitted effect of over 50% in size
# Method in brief: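 Quantitative high-throughput screen of the Tox21 10K library in HEK293: cells and RealTime-Glo reagents plated together, compound added at 5 h, luminescence monitored through 40 h at 37 C.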
# [6] = qHTS assay to identify small molecule agonists of the hypoxia (HIF-1) signaling pathway (AID 1224846; active = well fitted activation curve with a large enough effect in the signal ratio in the repeat runs, not every such curve was filed as active; inconclusive = weak or mixed curves; the % refers to the signal ratio); conditions: HRE-bla ME-180 cells, beta-lactamase ratio, 17 h; series mostly up to 76.8 µM
# Method in brief: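 Agonist mode reporter screen. ME-180 cells stably expressing bla under HRE control received test compounds in DMSO for 17 hrs (37C, 5% CO2), and beta-lactamase activity was then detected with the CCF4-AM FRET substrate.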
# [7] = qHTS assay to identify small molecule agonists of H2AX - cell viability counter screen (AID 1224847; calls by dose curve; also: potency is read from the fitted curve at half-maximal effect; nearly all actives have a fitted effect of over 30% in size)
# Method in brief: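 For this counter screen, overnight-attached CHO-K1 cells received test compounds (15 concentrations, 0.76% DMSO final); 3 hr later at 37C, CellTiter-Glo reagent was added and luminescence recorded after 30 min at room temperature.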
# Tags tell the direction and shape of the fitted curve.
# Chain of UniProt Q14994 (Q14994 whole entry, looked up): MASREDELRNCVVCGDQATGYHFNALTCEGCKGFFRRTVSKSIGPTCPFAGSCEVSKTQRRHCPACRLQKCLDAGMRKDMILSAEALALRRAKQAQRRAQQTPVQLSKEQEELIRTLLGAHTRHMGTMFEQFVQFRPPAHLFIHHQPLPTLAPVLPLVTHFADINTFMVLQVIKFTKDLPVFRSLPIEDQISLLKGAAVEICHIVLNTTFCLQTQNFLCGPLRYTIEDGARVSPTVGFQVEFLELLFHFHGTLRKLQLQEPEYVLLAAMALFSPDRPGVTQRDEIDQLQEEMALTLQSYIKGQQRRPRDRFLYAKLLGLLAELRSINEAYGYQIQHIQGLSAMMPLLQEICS
compound,measurement,setting,value
COc1ccc([C@@H]2Sc3ccccc3NC(=O)[C@@H]2O)cc1,Potency,[1],"inconclusive: 13.3 µM [cytotoxic, full curve]"
same,Potency,[2],"inconclusive: 2.37 µM [inhibitor, full curve]"
same,Potency,[3],"inconclusive: 16.8 µM [falling, partial curve, poor fit]"
same,Potency,[4],"inconclusive: 21.1 µM [inhibitor, partial curve, poor fit]"
same,Potency,[5],"inconclusive: 21.3 µM [cytotoxic, single point]"
O=C(N[C@@H](Cc1ccccc1)[C@@H](O)C(=O)N1C[C@@H](O)[C@@H](O)C1)c1cc2cc(Cl)ccc2[nH]1,Potency,[6],inactive
CCOC(=O)C1=NN(c2ccc(Cl)cc2Cl)C(C)(C(=O)OCC)C1 (stereo not drawn),Potency,[7],active: 113 µM
Nc1nc(CC(=O)O)cs1,Potency,[7],"inconclusive: 127 µM [cytotoxic, single point]"
